Measured values reported in patent US20190241662A1 (ADAGENE, published 2019).

Columns and labels:
Experiment in all cases: yeast-display flow cytometry, Normalized FACS Bound
human CD80 = biological target: T1, human CD80 (human, UniProt P33681 35-242, limits assumed)
T1 construct: constructs not described; also called biotinylated CD80; CD80-Fc-Bio
T1 sequence (looked up): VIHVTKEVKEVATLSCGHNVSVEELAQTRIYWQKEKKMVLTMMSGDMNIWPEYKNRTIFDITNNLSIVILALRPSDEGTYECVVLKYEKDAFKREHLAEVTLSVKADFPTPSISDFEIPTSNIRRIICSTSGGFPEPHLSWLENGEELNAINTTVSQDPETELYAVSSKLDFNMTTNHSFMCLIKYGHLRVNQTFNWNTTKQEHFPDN

human CD86 = biological target: T2, human CD86 (human, UniProt P42081 24-247, limits assumed)
T2 construct: constructs not described; also called recombinant human CD86 fused with human Fc; CD86-Fc-Bio
T2 sequence (looked up): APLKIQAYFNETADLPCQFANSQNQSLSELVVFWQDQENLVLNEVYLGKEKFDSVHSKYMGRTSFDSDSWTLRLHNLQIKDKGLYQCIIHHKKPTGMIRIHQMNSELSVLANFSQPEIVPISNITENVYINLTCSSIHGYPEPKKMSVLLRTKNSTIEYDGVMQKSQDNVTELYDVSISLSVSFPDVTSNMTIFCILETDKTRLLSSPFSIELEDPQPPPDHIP

mouse CD86 = biological target: T3, mouse CD86 (mouse, UniProt P42082 24-244, limits assumed)
T3 sequence (looked up): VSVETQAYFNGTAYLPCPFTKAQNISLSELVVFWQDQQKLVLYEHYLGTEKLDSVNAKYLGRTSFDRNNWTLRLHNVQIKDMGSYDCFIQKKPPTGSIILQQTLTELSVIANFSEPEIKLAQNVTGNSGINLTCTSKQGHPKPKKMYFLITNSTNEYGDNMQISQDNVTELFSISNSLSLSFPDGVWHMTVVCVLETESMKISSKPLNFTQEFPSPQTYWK

Measured: binding result

B1: human CTLA4 mutant I108E displayed on yeast (receptor)
chain: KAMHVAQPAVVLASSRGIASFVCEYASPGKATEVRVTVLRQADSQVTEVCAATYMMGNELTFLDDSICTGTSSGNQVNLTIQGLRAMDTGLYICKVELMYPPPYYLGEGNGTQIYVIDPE
binds: human CD80 | human CD86 | mouse CD86

B2: human CTLA4 mutant I108A displayed on yeast (receptor)
chain: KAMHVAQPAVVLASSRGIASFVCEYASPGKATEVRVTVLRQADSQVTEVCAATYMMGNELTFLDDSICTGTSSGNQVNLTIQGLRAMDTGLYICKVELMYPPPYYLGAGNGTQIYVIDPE
binds: human CD80 | human CD86 | mouse CD86

B3: human CTLA4 mutant I108R displayed on yeast (receptor)
chain: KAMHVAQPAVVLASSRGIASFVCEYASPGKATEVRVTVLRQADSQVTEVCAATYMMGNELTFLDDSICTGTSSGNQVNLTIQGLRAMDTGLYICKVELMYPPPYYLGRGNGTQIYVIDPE
binds: human CD80 | human CD86 | mouse CD86

B4: human CTLA4 displayed on yeast (wild-type) (receptor)
chain: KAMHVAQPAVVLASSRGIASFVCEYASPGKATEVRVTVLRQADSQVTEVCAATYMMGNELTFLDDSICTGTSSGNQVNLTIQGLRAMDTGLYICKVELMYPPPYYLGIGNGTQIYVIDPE
notes: also called human WT
binds: human CD80 | human CD86 | mouse CD86

B5: human CTLA4 mutant I108K displayed on yeast (receptor)
chain: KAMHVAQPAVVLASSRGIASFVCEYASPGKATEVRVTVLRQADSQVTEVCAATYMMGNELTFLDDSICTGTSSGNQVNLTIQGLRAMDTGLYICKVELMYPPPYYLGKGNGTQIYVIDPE
binds: human CD80 | human CD86 | mouse CD86

B6: mouse CTLA4 displayed on yeast (receptor)
chain: not shown
binds: human CD80 | human CD86 | mouse CD86

B7: human CTLA4 mutant YL105AA displayed on yeast (receptor)
chain: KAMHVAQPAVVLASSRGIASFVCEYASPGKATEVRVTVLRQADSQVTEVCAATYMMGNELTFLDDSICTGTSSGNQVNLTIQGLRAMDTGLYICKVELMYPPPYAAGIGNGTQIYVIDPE
binds: human CD80 | human CD86 | mouse CD86

B8: human CTLA4 mutant I108S displayed on yeast (receptor)
chain: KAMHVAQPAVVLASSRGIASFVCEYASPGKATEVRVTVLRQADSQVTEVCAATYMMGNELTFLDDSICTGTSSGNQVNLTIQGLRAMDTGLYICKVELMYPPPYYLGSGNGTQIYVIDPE
binds: human CD80 | human CD86 | mouse CD86
